# Experimental data from article PMC4336329 (PLoS ONE, 2015).
# In all, about 310,000 compounds went through this assay and about 14,000 (4.5%) showed an effect of 50% or more. The effect is printed as a negative number. The list shows a part of the results.
# Target: human ether-à-go-go-related gene (hERG) potassium channel (human, UniProt Q12809)
# Assay: primary screen, population patch clamp on CHO cells stably expressing hERG
# 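Also: peak tail current of the secondary pulse compared with the same well before compound.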
# Sequence of human ether-à-go-go-related gene (hERG) potassium channel (Q12809 whole entry, looked up): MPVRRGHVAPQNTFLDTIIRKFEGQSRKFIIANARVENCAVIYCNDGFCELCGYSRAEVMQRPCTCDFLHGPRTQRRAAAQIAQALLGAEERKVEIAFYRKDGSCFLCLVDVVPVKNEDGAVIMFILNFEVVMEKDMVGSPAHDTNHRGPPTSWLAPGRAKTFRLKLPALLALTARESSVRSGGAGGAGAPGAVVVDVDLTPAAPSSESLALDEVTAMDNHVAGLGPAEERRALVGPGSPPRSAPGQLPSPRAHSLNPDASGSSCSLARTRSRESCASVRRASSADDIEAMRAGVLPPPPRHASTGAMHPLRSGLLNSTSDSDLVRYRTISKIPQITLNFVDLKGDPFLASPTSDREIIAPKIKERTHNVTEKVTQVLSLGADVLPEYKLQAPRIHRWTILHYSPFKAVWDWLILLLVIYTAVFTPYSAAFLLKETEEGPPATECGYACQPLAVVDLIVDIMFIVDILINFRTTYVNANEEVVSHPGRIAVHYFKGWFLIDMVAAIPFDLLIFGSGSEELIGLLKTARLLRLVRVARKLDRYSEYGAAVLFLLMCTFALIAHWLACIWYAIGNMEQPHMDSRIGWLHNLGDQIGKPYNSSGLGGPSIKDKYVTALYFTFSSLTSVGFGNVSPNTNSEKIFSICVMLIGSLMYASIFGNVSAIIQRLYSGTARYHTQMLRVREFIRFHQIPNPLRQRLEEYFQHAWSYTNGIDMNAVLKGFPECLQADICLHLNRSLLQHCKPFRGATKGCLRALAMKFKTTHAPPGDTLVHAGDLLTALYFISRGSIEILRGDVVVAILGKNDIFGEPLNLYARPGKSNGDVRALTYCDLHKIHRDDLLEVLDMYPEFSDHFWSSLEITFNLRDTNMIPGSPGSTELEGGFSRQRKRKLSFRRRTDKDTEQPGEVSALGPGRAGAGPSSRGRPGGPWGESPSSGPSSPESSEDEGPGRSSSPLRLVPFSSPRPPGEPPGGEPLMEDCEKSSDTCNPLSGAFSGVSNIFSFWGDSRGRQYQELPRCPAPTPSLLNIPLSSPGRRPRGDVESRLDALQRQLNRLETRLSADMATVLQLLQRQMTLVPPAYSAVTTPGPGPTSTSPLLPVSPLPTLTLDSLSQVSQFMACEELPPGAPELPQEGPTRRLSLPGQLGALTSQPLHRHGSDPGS
row,SMILES,"hERG current change (%, negative = inhibition) at 10uM"
1,CNC(=O)C1(CC(C)C)C=CCN1C(C)=O (centres unmarked),10.3%
2,CCOc1ccc(NC(=O)CN2CCN(C(=O)c3ccco3)CC2)cc1S(=O)(=O)N1CCCC1,-21.2%
3,CC1(C(=O)Nc2cccc(S(=O)(=O)N3CCOCC3)c2)Cc2ccccc2C(=O)O1 (centres unmarked),19.8%
4,O=C(CSc1cccc[n+]1[O-])N1CCCc2ccccc21,10.8%
5,CC(O)CNCc1cccc2ccccc12.Cl (centres unmarked),17.7%
6,CCCNC(=O)C1CN(C(=O)c2nn(Cc3ccccc3)c(=O)c3ccccc23)c2ccccc2O1 (centres unmarked),0.692%
7,Cc1ccc(C)c(N2N=C(C(=O)Nc3cccnc3)CCC2=O)c1,-4.97%
8,CC(=O)Nc1ccc(N(C(=O)CNC(=O)c2ccco2)C(C(=O)NCc2ccco2)c2ccccc2F)cc1 (centres unmarked),28.9%
9,COc1ccc(Cl)cc1NC(=O)CN1CCN(S(=O)(=O)N2CCOCC2)CC1,-55.9%
10,CCOC(=O)c1cc(C)sc1/N=C/C1=C(O)CCCC1=O,-6.61%
11,O=C(Nc1ccc(Cl)cc1)c1ccc2nsnc2c1,13.5%
12,COc1cc(/C=C2/N=C(c3ccccc3)OC2=O)c(F)cc1OCc1ccccc1,10.1%
13,CSc1ccccc1NC(=O)Nc1ccccc1Cl,5.26%
14,Cn1c2ccccc2c(=O)n2c(=O)c3ccccc3cc12,-24.9%
15,O=C(CCn1cccc1)NCc1ccc2c(c1)OCO2,-0.49%
16,CCC1CO/C(=C(\C(=C(Cl)Cl)N2CCOCC2)[N+](=O)[O-])N1 (centres unmarked),1.07%
17,Cc1ccc(C2=NN(CC(=O)NCc3ccco3)C(=O)CC2)cc1,-37.9%
18,O=C(NC1CCCN(Cc2ccccc2F)C1)c1cccs1 (centres unmarked),-4.04%
19,S=c1nc[nH]c2c1[nH]c1ccc(Cl)cc12,16.4%
20,Cc1ccccc1-n1nc(C(=O)O)cc1-c1ccccc1,7.87%
21,CC(=O)Nc1cccc(NC(=O)COc2nncc3ccccc23)c1,-0.799%
22,CCCCN(CCCC)S(=O)(=O)c1ccc(C(=O)Nc2nnc(COC)o2)cc1,-28.2%

row,SMILES,"hERG current change (%, negative = inhibition) at 10uM"
1,CC(=O)N1CCN(CC(=O)Nc2cc([N+](=O)[O-])ccc2Cl)CC1,15.5%
2,O=C(c1ccco1)N(CCC(c1ccccc1)c1ccco1)Cc1ccccc1 (centres unmarked),-14.8%
3,O=C1CCC(=O)N1c1ccc(NC2CCN(Cc3ccccc3)CC2)c([N+](=O)[O-])c1,2.23%
4,CC(C)(C)NC(=O)/C=C/c1cccc(C(F)(F)F)c1,-8.66%
5,Cc1cc(C)n2nc(SCC(=O)NC3CCCC(C)C3C)nc2n1 (centres unmarked),4.23%
6,COc1ccc(CCN(C(=O)C(F)(F)F)C(C(=O)NC2CCCCC2)c2ccc(C)s2)cc1OC (centres unmarked),19.3%
7,O=C(NC1CCCc2ccccc21)c1cc(Cl)ccn1 (centres unmarked),14.5%
8,O=C(Cc1cc(=O)[nH]c(=O)[nH]1)NCc1ccc(Cl)cc1,19.7%
9,CC1CCCCN1S(=O)(=O)c1ccc(C(=O)Nc2nnc(-c3ccco3)o2)cc1 (centres unmarked),-2.35%
10,Cc1nc2ccccc2n1C1CCN(Cc2nnnn2CCc2ccccc2)CC1.Cl,-68.6%
11,COc1cc(NC(=O)C2CC(=O)N(CCc3ccccc3)C2)cc(OC)c1 (centres unmarked),-12.8%
12,CCc1nnc(NS(=O)(=O)c2ccc(NC(=O)c3ccc(S(=O)(=O)N(CC)CC)cc3)cc2)s1,11.6%
13,COc1ccccc1-c1nc(C(=O)NCC2CCCO2)cc2c1[nH]c1ccccc12 (centres unmarked),-29%
14,COc1ccc(-c2ccc(C#N)c(SCC(=O)NC3CC3)n2)cc1OC,8.47%
15,CCOC(=O)Cc1nn(C(C)C)c(=O)c2ccccc12,26.6%
16,CCCCCCSc1ccc(-c2nc3ccc(C)cn3c2NCc2ccccc2)cc1.O=C(O)C(F)(F)F,6.22%
17,COc1cc(OC)cc(-c2sc3ccc(OC)cc3c2C#CC(C)(C)O)c1,17%
18,CCOCC(=O)Nc1ccc(-c2cn3cccnc3n2)cc1,-11.6%
19,CC(C)c1ccccc1OCC(=O)NN1C(=O)c2ccccc2C1=O,6.27%
20,O=C(c1ccccc1)c1ccc(OCCO)cc1,15.8%
21,N#CC1=C(N)C(C#N)(C#N)[C@H](c2c(F)cccc2F)[C@H]2CC3(CC=C12)OCCO3,-9.59%
22,Cc1nc(C(=O)N(C)C)nn1-c1ccc([N+](=O)[O-])cc1,-0.782%
